Data taken from patent US11161864B2, “Sting agonists” (Venenum Biodesign, LLC, priority 2018, dated 2021).

Experiments:
[1] = test system: STING pathway, RAW-Dual Reporter cell line; assay: cells; conditions: 5 hrs; for EC50: read-out: Murine Agonist EC50
[2] = target: T1, HAQ STING protein, THP1 Dual (HAQ) human cells (Homo sapiens (Human), UniProt Q86WV6, G230A/H232R/R293Q/R71H); conditions: 5 hrs
[3] = target: T2, wildtype (WT) STING protein, THP1 Dual (WT) human cells (Homo sapiens (Human), UniProt Q86WV6, H232R); conditions: 5 hrs
[4] = target: T1, HAQ STING protein, THP1 Dual (HAQ) human cells; assay: cell-based; conditions: Human HAQ Agonist EC50, 5 hrs
[5] = target: T2, wildtype (WT) STING protein, THP1 Dual (WT) human cells; assay: cell-based; conditions: Human WT Agonist EC50, 5 hrs

T1 sequence (Q86WV6 whole entry R71H/G230A/H232R/R293Q): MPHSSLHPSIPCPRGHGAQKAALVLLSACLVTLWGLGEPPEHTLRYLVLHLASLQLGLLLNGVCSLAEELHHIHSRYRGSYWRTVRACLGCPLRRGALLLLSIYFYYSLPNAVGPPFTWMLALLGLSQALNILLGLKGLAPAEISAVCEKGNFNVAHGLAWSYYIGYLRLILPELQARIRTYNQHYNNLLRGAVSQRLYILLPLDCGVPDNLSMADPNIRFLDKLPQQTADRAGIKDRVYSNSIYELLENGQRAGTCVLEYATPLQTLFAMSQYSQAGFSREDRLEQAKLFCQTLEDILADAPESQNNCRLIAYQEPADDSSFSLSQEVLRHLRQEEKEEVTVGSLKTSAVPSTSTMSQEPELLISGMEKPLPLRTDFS
T2 sequence (Q86WV6 whole entry H232R): as the sequence (Q86WV6 whole entry R71H/G230A/H232R/R293Q) above, with H71R, A230G, Q293R counted along it

Row | SMILES | Murine Agonist Efficacy [1] [%] | EC50 [1] [µM] | Human HAQ Agonist Efficacy [2] [%] | Human WT Agonist Efficacy [3] [%] | EC50 [4] [µM] | EC50 [5] [µM]
1 | Nc1nc2c(ncn2[C@@H]2O[C@@H]3COP(=O)(S)OCCn4c(nc5cncnc54)COP(=O)(S)O[C@@H]2[C@@H]3F)c(=O)[nH]1 (single isomer, unassigned) [Example 1D] | >100 | < 10 | >100 | <100 | < 10 | 10 to 99.9
2 | Nc1nc2c(ncn2[C@@H]2O[C@@H]3COP(=O)(S)OCCn4c(nc5cncnc54)COP(=O)(S)O[C@@H]2[C@@H]3F)c(=O)[nH]1 (single isomer, unassigned) [Example 1A] | >100 | < 10 | >100 | <100 | 10 to 99.9 | 10 to 99.9
3 | O=c1[nH]cnc2c1ncn2[C@@H]1O[C@@H]2COP(=O)(S)OCCn3c(nc4cncnc43)COP(=O)(S)O[C@@H]1[C@@H]2F (stereo partly drawn) [Example 21B, (1S,21R,23R,24R)-24-Fluoro-23-(6-oxo-6,9-dihydro-1H-purin-9-yl)-3,18-disulfanyl-2,4,17,19,22-pentaoxa-7,10,12,14-tetraaza-3lambda5,8lambda5-diphosphatetracyclo[19.2.1.06,14.08,13]tetracosa-6,8,10,12-tetraene-3,18-dione] | >100 | 10 to 99.9 | >100 | <100 |  | 
4 | Cc1ncc2nc3n(c2n1)CCOP(=O)(S)OC[C@H]1O[C@@H](n2cnc4c(=O)[nH]c(N)nc42)[C@H](OP(=O)(S)OC3)[C@@H]1F (single isomer, unassigned) [Example 11D] | >100 | < 10 | >100 | <100 |  | 
5 | O=c1[nH]cnc2c1ncn2[C@@H]1O[C@@H]2COP(=O)(S)OCCn3c(nc4cncnc43)COP(=O)(S)O[C@@H]1[C@@H]2F (stereo partly drawn) [Example 21D, (1S,21R,23R,24R)-24-Fluoro-23-(6-oxo-6,9-dihydro-1H-purin-9-yl)-3,18-disulfanyl-2,4,17,19,22-pentaoxa-7,10,12,14-tetraaza-3lambda5,8lambda5-diphosphatetracyclo[19.2.1.06,14.08,13]tetracosa-6,8,10,12-tetraene-3,18-dione] | >100 | 10 to 99.9 | <100 | <100 |  | 
